Measurements as given in PubChem BioAssay (NCI).
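Test compounds were applied to cells in 96-well plates for 48 hours at 5 doses. Abbreviation: GI50, concentration required for 50% inhibition of growth. The concentration for full growth arrest is given as TGI.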

Tested on: NCI-H322M lung
Test: DTP human tumour cell line panel, 48 h

Structure (SMILES)	GI50 [µM]	TGI [µM]
COc1cc(/C=C/C(=O)c2cnn(-c3cc(=O)[nH]c4ccccc34)c2C)cc(OC)c1OC	4.18	> 100
CC[C@@]12CC(C(=O)OC)=C3Nc4cc5c(cc4[C@@]34CCN(C[C@H]3O[C@H]31)[C@@H]24)[C@@H]1[C@H](O5)[C@@H](O)[C@@]2(CC)CC(C(=O)OC)=C3Nc4cc(OC)ccc4[C@@]34CCN1[C@@H]24	0.514	> 54
COc1ccccc1[C@H]1C(C(=O)c2ccc(Cl)cc2)C2(N[C@@H]1c1ccccc1)C(=O)Nc1ccc(Cl)cc12 (stereo partly specified)	12.9	> 57.5
